Hit rate of the full screen: of about 2,000 compounds, about 45 (2%) were called active.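 Rule for the calls: active = inhibition above the mean of all tested compounds plus 3 SD (cut at about 49% in these data); inactive = the rest.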 The list shows a part of the results.
target: Perilipin-5 (Homo sapiens) + 1-acylglycerol-3-phosphate O-acyltransferase ABHD5 (Homo sapiens) (UniProt Q00G26+Q8WTS1); experiment: blockers of ABHD5 binding to perilipin-5 – cell lysate, split luciferase complementation, luminescence, NIH validation set, pilot screen (AID 493035);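 note: 0% = DMSO only wells while the 100% control is not stated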; details: split G. princeps luciferase complementation, lysates, 4 h; at 7.9 µM, active compounds read high
Chain of UniProt Q00G26 (Q00G26 whole entry, looked up): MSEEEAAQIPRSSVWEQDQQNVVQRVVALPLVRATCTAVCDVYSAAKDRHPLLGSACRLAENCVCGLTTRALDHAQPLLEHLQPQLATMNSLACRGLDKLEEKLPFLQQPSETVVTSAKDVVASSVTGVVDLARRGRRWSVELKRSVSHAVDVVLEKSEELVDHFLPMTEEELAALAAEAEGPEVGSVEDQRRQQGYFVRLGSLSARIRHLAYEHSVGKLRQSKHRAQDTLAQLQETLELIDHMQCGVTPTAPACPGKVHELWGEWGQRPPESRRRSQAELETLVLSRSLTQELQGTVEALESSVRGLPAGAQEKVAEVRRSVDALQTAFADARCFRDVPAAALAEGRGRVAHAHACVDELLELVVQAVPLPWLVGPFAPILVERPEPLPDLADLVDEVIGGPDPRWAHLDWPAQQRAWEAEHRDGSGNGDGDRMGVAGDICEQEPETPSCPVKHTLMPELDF
Chain of UniProt Q00G26 (Q8WTS1 whole entry, looked up): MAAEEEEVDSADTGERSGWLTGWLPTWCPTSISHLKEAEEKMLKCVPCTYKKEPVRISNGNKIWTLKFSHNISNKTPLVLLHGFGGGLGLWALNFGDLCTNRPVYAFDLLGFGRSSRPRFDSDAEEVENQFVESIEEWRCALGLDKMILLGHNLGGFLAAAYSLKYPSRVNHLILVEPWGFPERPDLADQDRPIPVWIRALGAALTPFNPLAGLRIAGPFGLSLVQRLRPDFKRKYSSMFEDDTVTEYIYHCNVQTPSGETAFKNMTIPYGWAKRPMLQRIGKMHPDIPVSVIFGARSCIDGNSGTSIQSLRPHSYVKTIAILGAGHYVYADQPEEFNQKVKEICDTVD

inhibition, active:
COc1ccc(/C=C2\CC/C(=C\c3ccc(OC)c(OC)c3)C2=O)cc1OC 72.8%
Cc1ccc(C2=NOC(=O)/C2=C\C=C\c2ccccc2)cc1 94.4%

inhibition, inactive:
C[C@H](NC(=O)C1(c2ccccc2)CCN(C(=O)[C@H]2CSCN2C(=O)OC(C)(C)C)CC1)C(=O)O 7.39%
COc1cc(CO)ccc1OCc1nnnn1-c1ccc(C)cc1 -2.14%
CCCCOc1ccc(C(=O)CCN2CCCCC2)cc1 29.9%
COc1ccc(/C=C(/C#N)c2cccnc2)cc1OC -1.08%
Cc1c(CCOC(=O)CC23CC4CC(CC(C)(C4)C2)C3)sc[n+]1Cc1ccc([N+](=O)[O-])cc1 -7.85%
CC(=O)OCC(=O)[C@@]1(O)CC[C@H]2[C@@H]3CCC4=CC(=O)C=C[C@]4(C)[C@H]3[C@@H](O)C[C@@]21C 3.85%
COC(=O)c1ccc(NC(=O)c2ccccc2SC)cc1 6.35%
C[C@]12CC[C@@H]3c4ccc(O)cc4C(=O)C[C@H]3[C@@H]1CC[C@@H]2O 9.16%
CC(=O)C1=C(O)C(=O)OC1c1ccc(C)cc1 (stereo unspecified) -1.46%
COc1ccc(OC)c(C(=O)c2coc3ccc(O)cc23)c1 -4.23%
Cc1nonc1CN(C)C(=O)c1ccc(OC2CCN(C(=O)c3cccnc3)CC2)cc1 2.15%
NCCc1ccc(O)c(O)c1 -3.33%
CC(=O)c1cn(C)c(=O)[nH]c1=O -6.98%
CC1=CC2(O)OCCN(CCO)C2=CC1=O (stereo unspecified) -6.75%
COc1cccc(N2CC34C=CC(O3)C(C(=O)O)C4C2=O)c1 (stereo unspecified) -11.6%
C[C@H](CS)C(=O)N1CCC[C@H]1C(=O)O 0.6%
CCCCc1oc2ccccc2c1C(=O)c1cc(I)c(OCCN(CC)CC)c(I)c1 -3.91%
O=C(O)c1cccnc1 -4.22%
Cc1cccc(N(C)C(=S)Oc2ccc3ccccc3c2)c1 -7.39%
COc1ccc(C(=O)Nc2ccccc2C(=O)NC(Cc2c[nH]c3ccccc23)C(=O)O)cc1 (stereo unspecified) 1.79%
O=C(O)c1cc2cc(F)ccc2[nH]1 3.04%
NNC(=O)c1ccncc1 1.56%
COc1cc(NC(=S)NC(=O)c2cccs2)ccc1NC(=O)C(C)C 2.99%
CC12CCC(C(=O)N3CCCCC3)([C@H](Br)C1=O)C2(C)C (stereo partly specified) -4.77%
COc1ccccc1OS(=O)(=O)c1ccc(NC(C)=O)cc1 -4.94%
COc1ccc(C2C3C(C)=NN=C3CC(C)(O)C2C(C)=O)cc1 (stereo unspecified) -1.5%
COc1cccc(OCc2nnc(-c3cccs3)o2)c1 0.28%
CC12CCC(C(=O)NCc3ccc4c(c3)OCO4)(CC1=O)C2(C)C (stereo unspecified) -3.68%
CC(=O)Nc1ccc(CN2CCN(C3CCCCC3)C(CCO)C2)cc1 (stereo unspecified) 0.12%
CC1(C)O[C@@H]2C[C@H]3[C@@H]4C[C@H](F)C5=CC(=O)CC[C@]5(C)[C@H]4[C@@H](O)C[C@]3(C)[C@]2(C(=O)CO)O1 -12.1%
COCCCN1C(=O)/C(=C\c2cccs2)C(C(=O)OC)=C1C 0.91%
CN1C(=O)NC(c2ccc(O)cc2)C2=C1CN(c1cccc3ccccc13)C2=O (stereo unspecified) -15.2%
Cc1ccccc1N1C(N)=NC(N)=NC1(C)C -6.03%
Cc1nc2c(c3c1[nH]c1ccccc13)C(=O)CC(C)(C)C2 -10.6%
CN(C)c1cc(NC(=O)CN2CCOCC2)c2ccccc2n1 -7.9%
CC(C)c1cc(=O)oc2c3c4c(cc12)CCCN4CCC3 2.85%
CSCC[C@H](NC(=O)OC(C)(C)C)C(=O)N1CCC(C(=O)N[C@@H](C)C(=O)O)CC1 -0.91%
COc1cc2c(cc1O)CCN(C(=O)c1ccco1)C2C (stereo unspecified) 1.59%
CCC(C)NCCOc1ccccc1C (stereo unspecified) -2.83%
COc1ccc(NC(=O)C2OC3OC(C)(C)OC3C3OC(C)(C)OC23)cc1 (stereo unspecified) 3.54%
CC(=O)Oc1ccc(C(=O)O)cc1OC(C)=O 4.2%
CCOC(=O)C1=C(C)N[C@@]2(O)c3ccccc3C(=O)[C@@]12O 10.3%
O=c1c2ccccc2nc2n1CCCN2 -0.84%
Cn1cc(CN2CCC(C(=O)N3CCCCC3)CC2)c(-c2ccccc2F)n1 -1.57%
CCOc1ccc(CC2CCC(=O)NC2=O)cc1 (stereo unspecified) 0.69%
O=C(COc1cc(O)c2c(=O)c3ccccc3oc2c1)OCc1ccccc1 10%
CC(C)(C)OC(=O)COc1cc(OCC(=O)OC(C)(C)C)c2c(=O)cc(-c3ccccc3)oc2c1 27.6%
CC(C)=CCCC1=CCC2C(=O)NNC(=O)C2C1 (stereo unspecified) 7.34%
COc1ccc(C(=O)Nc2nc3ccccc3c(=O)[nH]2)cc1 0.27%
CC1(C)c2ccccc2N2CC(=O)N(CC(N)=O)C21C (stereo unspecified) 4.9%
COCC(C)NC(=O)c1ccc(CN2CCc3ccccc3C2)cc1 (stereo unspecified) -10.8%
CC(C)C(CCN1C(=O)CCC1=O)C1CCOC(C)(C)C1 (stereo unspecified) 2.17%
C[C@@H]1CCC[C@H](C)N1NC(=O)c1ccc(Cl)c(S(N)(=O)=O)c1 -10%
Cc1ccc2[nH]c3c(=O)n(CCCN4CCN(C)CC4)cnc3c2c1 -5.12%
Cc1ccc2c(c1)c1c3n2CCCN(Cc2ccccc2)C3CCC1 (stereo unspecified) -6.95%
CC(C)[C@H](NC(=O)[C@@H]1CSCN1C(=O)OC(C)(C)C)C(=O)NCC1CCC(C(=O)O)CC1 (stereo partly specified) -18.6%
COc1ccc(C(=O)[C@H]2[C@H]3C(=O)N(c4ccccc4)C(=O)[C@H]3C3C=CC=NN32)cc1 (stereo partly specified) 8.24%
CCc1c(C)c2ccc(OCC(=O)OC(C)C)c(C)c2oc1=O -3.95%
COc1cc(/C=C/C(=O)N2CCCC2)cc(OC)c1OC 0.09%
